Source: PubChem BioAssay (EPA / NIEHS)
For some assays here: What follows is the remainder of the data, with few or none of the hits. Records with an inconclusive call do not appear. The entries are a selection whose mix differs from that of the whole data set. Calls of active or inactive are those of the source. The calls were made as follows, unless noted: active = hit-call score of the fitted dose curve at least 0.9, where 1 is the maximum; inactive = score below 0.9.

Key:
[1] = biological target: Peroxisome proliferator-activated receptor gamma (Homo sapiens) (UniProt P37231); test: OT_PPARg_PPARgSRC1_1440: Odyssey Thera (OT) 24-hour Protein-Complementation Assay for Peroxisome Proliferator-activated Receptor Gamma/ SRC-1 Co-activator (AID 2283388; active = hit-call score of the fitted dose curve at least 0.9, where 1 is the maximum;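 also: nuclear to cytoplasmic ratio of reconstituted Venus YFP fluorescence in fixed imaged cells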)
Outline: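 Cells carrying the PPARg/SRC-1 fragment-complementation reporter receive compound for 24 hours, are fixed and counterstained with Draq5, then imaged. Increased nuclear relative to cytoplasmic YFP fluorescence above DMSO baseline indicates binding activity.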

Caspase-3 (Homo sapiens) = Caspase-3 (Homo sapiens) (UniProt P42574); test: LTEA_HepaRG_CASP3: Life Technologies and Expression Analysis (LTEA) Assay for cysteine-aspartic acid protease (CASP3) using HepaRG (AID 2283477); details: actives raise or lower the signal; mRNA level, 48 h
Outline: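 Transcript-level assay: CASP3 mRNA in human HepaRG after 48 h treatment, eight half-log concentrations from 100 uM in 0.5% DMSO, quantified by qRT-PCR.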

[2] = biological target: Retinoic acid receptor RXR-alpha (Homo sapiens) (UniProt P19793); test: OT_NURR1_NURR1RXRa_0480: Odyssey Thera (OT) 8-hour HEK293T Protein Complementation Assay for Nurr1/retinoid X receptor (RXR) (AID 2283385; active = hit-call score of the fitted dose curve at least 0.9, where 1 is the maximum)
Outline: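 Compounds are applied to HEK293T cells carrying Nurr1 and RXRα linked to reporter fragments. After 8 h, fluorescence intensity reports heterodimer formation, with DMSO as baseline.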

CYP2E1 (gene 1571) = test: LTEA_HepaRG_CYP2E1: Life Technologies and Expression Analysis (LTEA) Assay for CYP2E1 using HepaRG (AID 2283485); details: actives raise or lower the signal; mRNA level, 48 h
Outline: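 Differentiated HepaRG cells were treated in duplicate for 48 h with chemicals in 0.5% DMSO, from 100 uM downward in half-log dilutions. RNA was then analysed by qRT-PCR for CYP2E1 induction or loss.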

[3] = biological target: Estrogen receptor (Homo sapiens) (UniProt P03372); test: OT_ERa_GFPERaERE_0480: Odyssey Thera (OT) 8-hour HeLa Transcription Induction Assay for Estrogen Receptor (AID 2283381)
Outline: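 Cells (HeLa) receive compound; after 8 h, reporter fluorescence is imaged and quantified by high-content analysis. Gain-of-signal relative to DMSO gives the endpoint.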

[4] = biological target: Peroxisome proliferator-activated receptor gamma (Homo sapiens) (UniProt P37231); test: OT_PPARg_PPARgSRC1_0480: Odyssey Thera (OT) 8-hour Protein-Complementation Assay for Peroxisome Proliferator-activated Receptor Gamma / SRC-1 Co-activator (AID 2283387; active = hit-call score of the fitted dose curve at least 0.9, where 1 is the maximum;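 also: nuclear to cytoplasmic split Venus YFP fluorescence ratio reporting PPARg SRC-1 interaction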)
Outline: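 Split-YFP (IFP1/IFP2) PPARg/SRC-1 reporter, HEK293T, 37 °C, 5% CO2; 8 h compound; formaldehyde fix + Draq5; high-content imaging, N/C ratio, ≥350 cells/image, positive direction vs DMSO.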

[5] = read-out: growth arrest and DNA damage 45 (GADD45B), GADD45B (gene 4616); test: LTEA_HepaRG_GADD45B: Life Technologies and Expression Analysis (LTEA) Assay for growth arrest and DNA damage 45 (GADD45B) using HepaRG (AID 2283461); details: actives raise or lower the signal; mRNA level, 48 h
Outline: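 Human HepaRG monolayers receive chemicals for 48 h at eight half-log concentrations, highest 100 uM, in 0.5% DMSO. Expression is measured by TaqMan qRT-PCR and normalized to ACTB, GAPDH and POLR2A.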

[6] = read-out: Heat shock 70 kDa protein 1 (HSPA1A), gene 3303; test: LTEA_HepaRG_HSPA1A: Life Technologies and Expression Analysis (LTEA) Assay for Heat shock 70 kDa protein 1 (HSPA1A) using HepaRG (AID 2283502); details: actives raise or lower the signal; mRNA level, 48 h
Outline: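 HSPA1A induction in human HepaRG liver cells is measured after 48 h of chemical treatment (100 uM maximum, 0.5% DMSO vehicle). Expression comes from qRT-PCR normalized to endogenous controls.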

[7] = read-out: matrix metalloproteinase-3 (MMP3), MMP3 (gene 4314); test: LTEA_HepaRG_MMP3: Life Technologies and Expression Analysis (LTEA) Assay for matrix metalloproteinase-3 (MMP3) using HepaRG (AID 2283519); details: actives raise or lower the signal; mRNA level, 48 h
Outline: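 HepaRG cells (~100,000/well) in serum-free induction medium were dosed in duplicate for 48 h with an 8-point half-log series from 100 uM, 0.5% DMSO. MMP3 mRNA was quantified by Fluidigm TaqMan qRT-PCR, normalized to three housekeeping genes.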

[8] = read-out: solute carrier (SLCO1B1), SLCO1B1 (gene 10599); test: LTEA_HepaRG_SLCO1B1: Life Technologies and Expression Analysis (LTEA) Assay for solute carrier (SLCO1B1) using HepaRG (AID 2283530); details: actives raise or lower the signal; mRNA level, 48 h
Outline: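 Human HepaRG cultures treated for 48 h with an eight-concentration half-log series topping at 100 uM; SLCO1B1 measured by qRT-PCR and fitted bidirectionally relative to DMSO.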

[9] = ACEA_AR_agonist_AUC_viability: ACEA Biosciences xCELLigence Real-Time Cell Analysis on Androgen Receptor Agonism for Viability (AID 2283775; active = hit-call score of the fitted dose curve at least 0.9, where 1 is the maximum)
Outline: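 Read-out is area under the impedance curve at 80 h post-dose in 22Rv1 cells, with DMSO as baseline and signal loss taken as reduced viability. Compounds ran in duplicate from 100 uM final.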

[10] = biological target: Bile acid receptor (Homo sapiens) (UniProt Q96RI1); test: OT_FXR_FXRSRC1_1440: Odyssey Thera (OT) 24-hour HEK293T Protein-Complementation Assay for Farnesoid X receptor/SRC-1 Co-activator (AID 2283384; active = hit-call score of the fitted dose curve at least 0.9, where 1 is the maximum)
Outline: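 Cell-based binding reporter: interaction of FXR with SRC-1 brings reporter fragments together, giving a fluorescence signal read 24 h after dosing of HEK293T cells.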

[11] = CEETOX_H295R_CORTISOL: CeeTox H295R High-throughput Steroidogenesis Assay for Cortisol (AID 2283438); details: actives raise or lower the signal;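 also: cortisol secreted into medium quantified by LC-MS/MS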
Outline: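 Human adrenocortical H295R cells (passage ≤10) received test chemicals for 48 h after forskolin priming. Secreted cortisol was measured by LC-MS/MS.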

[12] = read-out: Bcl-2 (BAD) gene, BAD (gene 572); test: LTEA_HepaRG_BAD: Life Technologies and Expression Analysis (LTEA) Assay for Bcl-2 (BAD) gene using HepaRG (AID 2283469); details: actives raise or lower the signal; mRNA level, 48 h
Outline: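 Differentiated HepaRG cells were exposed in duplicate in 0.5% DMSO for 48 h to eight-point half-log concentrations up to 100 uM. BAD mRNA was measured by Fluidigm TaqMan qRT-PCR, normalized to ACTB, GAPDH and POLR2A, and fitted bidirectionally against DMSO.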

[13] = read-out: Alpha-fetoprotein (AFP) gene, AFP (gene 174); test: LTEA_HepaRG_AFP: Life Technologies and Expression Analysis (LTEA) Assay for Alpha-fetoprotein (AFP) gene using HepaRG (AID 2283472); details: actives raise or lower the signal; mRNA level, 48 h
[14] = CCTE_Deisenroth_AIME_384WELL_CTox_Inactive: Cytotoxicity Assessment (CTOX) in CCTE's 384-well Estrogen Receptor Transactivation Assay without AIME metabolic competence (metabolism negative), Deisenroth Lab (AID 2284039; active = hit-call score of the fitted dose curve at least 0.9, where 1 is the maximum;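 also: cell viability via live-cell protease substrate cleaved to fluorescent probe; cells exposed 24 h to medium preincubated 2 h with alginate-water beads without S9; loss of fluorescence signal means loss of viability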)
Outline: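 Fluorescence from a live-cell protease substrate, read after 24 h in VM7Luc4E2 cells, indicated viability. Test medium came from a 2 h AIME step without hepatic S9 (alginate-water microspheres); concentrations spanned 0.002 - 200 uM, single technical replicate per run.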

[15] = CEETOX_H295R_ESTRADIOL: CeeTox H295R High-throughput Steroidogenesis Assay for Estradiol (AID 2283440); details: actives raise or lower the signal;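 also: estradiol secreted into medium quantified by LC-MS/MS after dansyl derivatisation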
Outline: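 Readout is estradiol in conditioned medium, quantified by reverse-phase HPLC-MS/MS against a 7-point standard curve. Cells: H295R, forskolin-stimulated, then dosed 48 h in 0.1% DMSO; activity fitted in both directions relative to DMSO.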

[16] = CEETOX_H295R_ESTRONE: CeeTox H295R High-throughput Steroidogenesis Assay for Estrone (AID 2283441); details: actives raise or lower the signal;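 also: estrone secreted into medium measured by LC-MS/MS after dansyl derivatization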
Outline: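 H295R cells; 48 h forskolin (10 uM) prestimulation; 48 h compound exposure, 0.1% DMSO final. Medium estrone: MTBE extraction, dansyl derivatization, HPLC-MS/MS. Bidirectional fit vs DMSO.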

[17] = read-out: Fatty acid synthase (Homo sapiens) (UniProt P49327); test: LTEA_HepaRG_FASN: Life Technologies and Expression Analysis (LTEA) Assay for Fatty Acid Synthase (FASN) using HepaRG (AID 2283448); details: actives raise or lower the signal; mRNA level, 48 h
Outline: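 Transcript-level assay: HepaRG liver cells are treated for 48 h across an eight-point range topping at 100 uM, and FASN mRNA, normalized to three housekeeping genes, is compared with DMSO controls in both directions.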

[18] = read-out: JUN Transcription Factor, JUN (gene 3725); test: LTEA_HepaRG_JUN: Life Technologies and Expression Analysis (LTEA) Assay for JUN Transcription Factor using HepaRG (AID 2283513); details: actives raise or lower the signal; mRNA level, 48 h
Outline: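 Human HepaRG liver cells receive test chemicals in 0.5% DMSO for 48 h across an eight-point range topping at 100 uM. Expression changes in JUN are scored in both directions against the DMSO vehicle.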

[19] = CEETOX_H295R_MTT_cell_viability: Viability Assessment in the CeeTox HT-H295R MTT Assay (AID 2283718)
[20] = read-out: Cytochrome P450 (CYP1A2), CYP1A2 (gene 1544); test: LTEA_HepaRG_CYP1A2: Life Technologies and Expression Analysis (LTEA) Assay for Cytochrome P450 (CYP1A2) using HepaRG (AID 2283479); details: actives raise or lower the signal; mRNA level, 48 h
Outline: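 In duplicate wells, HepaRG cultures maintained in 0.5% DMSO were treated 48 h across an 8-point, half-log series topping at 100 uM; phenobarbital (1 mM) served as induction control. Expression was read by qRT-PCR.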

[21] = read-out: Bcl-2 (BID) gene, BID (gene 637); test: LTEA_HepaRG_BID: Life Technologies and Expression Analysis (LTEA) Assay for Bcl-2 (BID) gene using HepaRG (AID 2283476); details: actives raise or lower the signal; mRNA level, 48 h
Outline: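 Gain or loss of BID expression is fitted relative to 0.5% DMSO vehicle. Human HepaRG liver cells received a 48 h chemical exposure over an eight-point concentration range.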

[22] = read-out: Interleukin 6 (IL6), IL6 (gene 3569); test: LTEA_HepaRG_IL6: Life Technologies and Expression Analysis (LTEA) Assay for Interleukin 6 (IL6) using HepaRG (AID 2283509); details: actives raise or lower the signal; mRNA level, 48 h
Outline: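 HepaRG cells exposed in duplicate for 48 h to eight half-log concentrations, top 100 uM, in 0.5% DMSO serum-free induction medium. mRNA measured by qRT-PCR, normalized to ACTB, GAPDH and POLR2A. Bidirectional fit versus DMSO.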

[23] = tested on: Thyroperoxidase (TPO), gene 445522; test: CCTE_Simmons_GUA_TPO: CCTE's Guaiacol Assay for Thyroperoxidase (TPO) Inhibition, Simmons Lab (AID 2283750; active = hit-call score of the fitted dose curve at least 0.9, where 1 is the maximum)
Outline: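 Porcine thyroid microsomes (25 ug) in 200mM potassium phosphate, preincubated 30 s at 37C with compound (8 concentrations, 5 nM–87.5 uM) and 35mM guaiacol; 1mM H2O2 starts reaction. Absorbance change at 450nm over first 80 s; loss of signal versus DMSO, three replicates.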

Chain of UniProt P37231 (P37231 whole entry, looked up, the tested form may be a part): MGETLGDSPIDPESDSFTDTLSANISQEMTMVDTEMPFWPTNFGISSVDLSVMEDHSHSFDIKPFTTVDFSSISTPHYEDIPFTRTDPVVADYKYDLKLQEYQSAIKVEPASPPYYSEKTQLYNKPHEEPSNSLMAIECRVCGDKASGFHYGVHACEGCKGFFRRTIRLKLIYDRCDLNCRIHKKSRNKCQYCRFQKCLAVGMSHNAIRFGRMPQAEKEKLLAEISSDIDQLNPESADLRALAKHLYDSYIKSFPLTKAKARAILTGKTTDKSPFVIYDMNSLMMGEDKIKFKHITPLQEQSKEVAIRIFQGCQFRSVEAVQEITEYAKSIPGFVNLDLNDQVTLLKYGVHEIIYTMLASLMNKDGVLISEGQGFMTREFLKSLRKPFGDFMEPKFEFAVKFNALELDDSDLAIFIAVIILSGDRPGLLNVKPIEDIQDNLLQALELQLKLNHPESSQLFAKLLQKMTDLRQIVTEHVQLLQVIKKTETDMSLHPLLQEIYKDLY
Chain of UniProt P49327 (P49327 whole entry, looked up): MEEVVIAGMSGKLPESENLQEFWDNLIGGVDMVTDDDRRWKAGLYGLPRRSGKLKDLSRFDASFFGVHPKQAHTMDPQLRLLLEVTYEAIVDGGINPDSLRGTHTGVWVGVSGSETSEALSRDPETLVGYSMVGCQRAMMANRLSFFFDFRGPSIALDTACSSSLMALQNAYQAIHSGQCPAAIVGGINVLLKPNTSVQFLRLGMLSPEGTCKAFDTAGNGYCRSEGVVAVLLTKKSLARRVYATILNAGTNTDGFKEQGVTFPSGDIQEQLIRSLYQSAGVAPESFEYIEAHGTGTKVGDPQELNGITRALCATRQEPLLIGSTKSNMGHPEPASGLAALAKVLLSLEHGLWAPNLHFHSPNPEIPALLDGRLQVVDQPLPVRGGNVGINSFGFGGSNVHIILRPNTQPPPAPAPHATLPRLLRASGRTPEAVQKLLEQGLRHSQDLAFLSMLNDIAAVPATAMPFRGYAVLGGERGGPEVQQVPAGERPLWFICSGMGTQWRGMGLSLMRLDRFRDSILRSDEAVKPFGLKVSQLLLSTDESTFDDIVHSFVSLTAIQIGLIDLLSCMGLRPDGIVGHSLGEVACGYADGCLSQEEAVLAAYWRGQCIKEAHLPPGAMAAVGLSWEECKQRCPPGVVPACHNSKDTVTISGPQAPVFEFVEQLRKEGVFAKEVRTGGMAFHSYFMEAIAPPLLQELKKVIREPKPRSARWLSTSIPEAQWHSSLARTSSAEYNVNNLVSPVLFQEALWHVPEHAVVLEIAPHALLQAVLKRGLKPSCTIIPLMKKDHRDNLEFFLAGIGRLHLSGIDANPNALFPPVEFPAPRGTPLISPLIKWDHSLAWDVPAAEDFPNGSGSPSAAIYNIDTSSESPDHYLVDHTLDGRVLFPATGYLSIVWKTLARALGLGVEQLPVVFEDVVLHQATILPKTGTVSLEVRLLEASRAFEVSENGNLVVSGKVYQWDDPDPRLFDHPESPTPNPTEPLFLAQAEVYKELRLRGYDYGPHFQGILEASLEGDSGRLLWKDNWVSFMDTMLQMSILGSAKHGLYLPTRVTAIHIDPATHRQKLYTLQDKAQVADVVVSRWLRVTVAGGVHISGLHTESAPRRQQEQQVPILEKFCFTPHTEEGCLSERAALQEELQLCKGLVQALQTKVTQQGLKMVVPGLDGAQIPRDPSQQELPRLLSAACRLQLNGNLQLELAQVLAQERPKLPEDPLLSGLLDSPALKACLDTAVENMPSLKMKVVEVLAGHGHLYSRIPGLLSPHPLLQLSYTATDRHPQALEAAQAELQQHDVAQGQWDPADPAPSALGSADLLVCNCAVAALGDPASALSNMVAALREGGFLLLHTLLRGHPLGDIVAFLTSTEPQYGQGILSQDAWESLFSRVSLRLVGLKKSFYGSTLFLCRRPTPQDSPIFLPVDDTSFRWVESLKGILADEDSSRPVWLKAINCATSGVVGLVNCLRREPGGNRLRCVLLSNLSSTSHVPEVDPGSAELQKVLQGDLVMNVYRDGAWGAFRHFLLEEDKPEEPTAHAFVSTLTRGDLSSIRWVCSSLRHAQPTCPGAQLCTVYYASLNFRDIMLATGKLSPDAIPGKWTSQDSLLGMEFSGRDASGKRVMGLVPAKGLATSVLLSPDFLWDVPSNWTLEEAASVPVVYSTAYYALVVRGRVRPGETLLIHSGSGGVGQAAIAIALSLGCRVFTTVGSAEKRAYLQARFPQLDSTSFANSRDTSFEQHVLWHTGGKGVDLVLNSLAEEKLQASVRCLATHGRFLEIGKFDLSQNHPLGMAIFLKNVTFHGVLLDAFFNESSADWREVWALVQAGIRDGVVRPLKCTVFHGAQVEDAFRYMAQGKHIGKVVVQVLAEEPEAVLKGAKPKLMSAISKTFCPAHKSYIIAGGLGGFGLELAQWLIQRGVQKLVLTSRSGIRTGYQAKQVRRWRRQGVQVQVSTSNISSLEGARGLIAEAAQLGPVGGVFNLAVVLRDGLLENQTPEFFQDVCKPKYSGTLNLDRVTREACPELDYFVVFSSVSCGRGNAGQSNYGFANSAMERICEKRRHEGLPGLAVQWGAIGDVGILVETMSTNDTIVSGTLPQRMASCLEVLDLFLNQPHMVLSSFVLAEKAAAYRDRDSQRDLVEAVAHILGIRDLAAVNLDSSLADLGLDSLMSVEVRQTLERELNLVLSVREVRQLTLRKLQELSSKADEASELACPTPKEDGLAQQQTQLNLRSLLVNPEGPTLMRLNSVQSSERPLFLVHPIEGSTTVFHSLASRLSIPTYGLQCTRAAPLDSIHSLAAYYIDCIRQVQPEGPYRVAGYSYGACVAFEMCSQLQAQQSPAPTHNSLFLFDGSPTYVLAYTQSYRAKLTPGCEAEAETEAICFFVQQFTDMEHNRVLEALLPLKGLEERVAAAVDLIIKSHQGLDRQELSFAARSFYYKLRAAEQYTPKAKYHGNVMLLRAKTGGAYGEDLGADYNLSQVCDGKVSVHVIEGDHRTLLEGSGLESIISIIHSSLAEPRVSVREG
Chain of UniProt P19793 (P19793 whole entry, looked up, the tested form may be a part): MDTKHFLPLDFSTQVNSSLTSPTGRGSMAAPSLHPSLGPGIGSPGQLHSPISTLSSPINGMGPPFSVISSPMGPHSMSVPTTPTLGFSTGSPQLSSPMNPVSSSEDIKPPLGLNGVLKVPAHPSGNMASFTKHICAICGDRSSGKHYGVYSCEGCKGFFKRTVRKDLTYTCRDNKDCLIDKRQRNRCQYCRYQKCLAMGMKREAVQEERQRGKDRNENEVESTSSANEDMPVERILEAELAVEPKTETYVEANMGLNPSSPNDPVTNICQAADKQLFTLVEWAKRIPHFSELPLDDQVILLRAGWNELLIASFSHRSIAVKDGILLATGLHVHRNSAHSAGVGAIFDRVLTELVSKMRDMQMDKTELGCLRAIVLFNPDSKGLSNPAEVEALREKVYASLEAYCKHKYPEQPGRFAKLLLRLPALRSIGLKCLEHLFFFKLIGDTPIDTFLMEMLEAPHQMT
Chain of UniProt P03372 (P03372 whole entry, looked up): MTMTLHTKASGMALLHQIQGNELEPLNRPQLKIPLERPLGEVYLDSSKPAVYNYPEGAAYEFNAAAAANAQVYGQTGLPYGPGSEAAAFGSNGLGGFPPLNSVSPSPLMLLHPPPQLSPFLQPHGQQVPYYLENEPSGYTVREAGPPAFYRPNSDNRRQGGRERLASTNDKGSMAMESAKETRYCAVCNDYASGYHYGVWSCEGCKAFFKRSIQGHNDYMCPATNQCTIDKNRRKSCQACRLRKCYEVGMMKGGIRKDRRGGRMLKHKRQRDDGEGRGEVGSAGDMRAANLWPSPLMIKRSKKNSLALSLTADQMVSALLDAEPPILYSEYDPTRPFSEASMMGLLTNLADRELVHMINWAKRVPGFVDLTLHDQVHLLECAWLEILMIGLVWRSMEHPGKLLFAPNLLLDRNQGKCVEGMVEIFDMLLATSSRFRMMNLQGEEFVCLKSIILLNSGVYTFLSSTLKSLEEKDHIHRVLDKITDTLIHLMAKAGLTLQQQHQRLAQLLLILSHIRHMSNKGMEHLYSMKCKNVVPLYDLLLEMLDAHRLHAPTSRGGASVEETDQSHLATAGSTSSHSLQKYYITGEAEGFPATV
Chain of UniProt Q96RI1 (Q96RI1 whole entry, looked up, the tested form may be a part): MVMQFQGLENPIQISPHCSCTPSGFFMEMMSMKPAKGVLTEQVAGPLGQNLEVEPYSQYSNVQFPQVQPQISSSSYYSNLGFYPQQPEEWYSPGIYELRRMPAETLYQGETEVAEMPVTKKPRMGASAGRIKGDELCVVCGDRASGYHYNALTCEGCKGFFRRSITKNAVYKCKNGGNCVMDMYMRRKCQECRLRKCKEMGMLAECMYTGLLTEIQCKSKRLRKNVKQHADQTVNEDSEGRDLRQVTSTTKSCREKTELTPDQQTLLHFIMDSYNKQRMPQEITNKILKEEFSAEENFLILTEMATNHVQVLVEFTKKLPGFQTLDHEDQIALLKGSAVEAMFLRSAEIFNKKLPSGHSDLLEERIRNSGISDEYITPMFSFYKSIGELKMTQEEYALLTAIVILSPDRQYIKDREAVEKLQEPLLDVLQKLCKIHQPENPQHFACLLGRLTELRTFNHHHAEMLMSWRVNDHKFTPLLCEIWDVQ
Chain of UniProt P42574 (P42574 whole entry, looked up): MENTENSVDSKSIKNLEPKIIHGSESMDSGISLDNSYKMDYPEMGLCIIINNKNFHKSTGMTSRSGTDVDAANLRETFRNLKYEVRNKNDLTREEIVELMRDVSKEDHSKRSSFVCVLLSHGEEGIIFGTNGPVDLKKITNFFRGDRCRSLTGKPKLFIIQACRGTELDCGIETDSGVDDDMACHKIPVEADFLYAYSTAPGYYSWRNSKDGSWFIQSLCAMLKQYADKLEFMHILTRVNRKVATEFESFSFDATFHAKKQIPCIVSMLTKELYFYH

For CCCCCCCCCCC, the outcome [1] was “inactive” and the outcome (Caspase-3 (Homo sapiens)) was “inactive”.
With CC(=O)S[C@H](C(=O)N[C@H]1Cc2ccccc2[C@H]2CCC[C@@H](C(=O)O)N2C1=O)C(C)C the outcome [2] was “inactive” and the outcome (CYP2E1 (gene 1571)) was “inactive”.
With CC(C)Nc1ccc(NC(C)C)c2c1C(=O)c1ccccc1C2=O the outcome [3] was “inactive”.
In the case of CC(C)(C)[C@@H](O)[C@@H](Cc1ccc(Cl)cc1)n1cncn1, the outcome [4] was “inactive”, the outcome [5] was “inactive” and the outcome [6] was “inactive”. The outcome [7] was “inactive” and the outcome [8] was “inactive”.
With CC(C)(C)CC(C)(C)c1ccc(O)c(-n2nc3ccccc3n2)c1 the outcome [4] was “inactive”.
With OCC#CCO the outcome [2] was “inactive” and the outcome [9] was “inactive”.
With C=CC(C)(O)CCC=C(C)CCC=C(C)C (centres undefined) the AC50 [10] was active: 80.8 µM.
In the case of CN(C)c1ccc(C(=N)c2ccc(N(C)C)cc2)cc1, the outcome [11] was “inactive”.
For CC(C)CCCCCCOC(=O)c1ccc(C(=O)OCCCCCCC(C)C)c(C(=O)OCCCCCCC(C)C)c1, the outcome [12] was “inactive”.
For Cc1ccc(O)cc1, the outcome [13] was “inactive” and the outcome [14] was “inactive”.
With Cc1ccc([N+](=O)[O-])cc1N the outcome [15] was “inactive”, the outcome [16] was “inactive” and the outcome [17] was “inactive”. The outcome [18] was “inactive” and the outcome [19] was “inactive”.
With c1coc(CNc2ncnc3nc[nH]c23)c1 the outcome [11] was “inactive”.
With CCO[Si](CCCNC(N)=O)(OCC)OCC the outcome [17] was “inactive” and the outcome [20] was “inactive”.
In the case of Cc1[nH]nc2c1N=C(c1ccccc1Cl)c1cc([N+](=O)[O-])ccc1N2, the AC50 [21] was active: 9.92 µM, the AC50 [22] was active: 3.06 µM and the outcome [23] was “inactive”.
